Laboratory results: PubChem BioAssay AID686970 (National Center for Advancing Translational Sciences (NCATS), 2013)
Screen size: about 360,000 compounds; about 6,000 (1.7%) were called active. Inconclusive means that the source gave no clear call. Such entries were picked first, then a sample of the others. The call rests on the fitted dose curve; in most records, active means well fitted cell-killing curve with a large enough effect; inconclusive means small, poorly fitted or top-dose-only effect, or effect the other way; inactive means flat fitted curve, though single readings scatter. Potencies of inconclusive entries are left out as doubtful fits.
Potency means the concentration at half of the fitted maximal effect; tags describe the fitted curve by direction and shape.

Assay: qHTS for induction of synthetic lethality in tumor cells producing 2HG: qHTS for the HT-1080-NT fibrosarcoma cell line;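 further: NT is the 2HG producing partner of a matched IDH1 knockdown line; nearly all actives have a fitted effect of over 55% in size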;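 on activity, negative = less viability: 0% = DMSO-treated cells and -100% = media-only wells without cells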
Settings: HT-1080-NT fibrosarcoma viability, CellTiter-Glo ATP luminescence, 48 h; activity, negative = less viability: at 46.1 µM (top of the series) unless noted
In short: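 750 cells/well, RPMI + 5% FBS; 2 h settle, compound pin-transfer, 48 h at 37 degrees C. CellTiter-Glo 10 min RT, luminescence. Normalized to DMSO and media-only wells.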
In the case of CC(=O)c1ccc(Nc2ccc([N+](=O)[O-])c3nonc23)cc1, the Potency is reported as inconclusive [cytotoxic, single point].
With COC(=O)c1ccccc1-c1ccc(/C=N/Nc2nc(N3CCCC3)nc(N3CCCC3)n2)o1 the Potency was inconclusive [cytotoxic, single point].
For NS(=O)(=O)c1ccc(N2N=C(c3ccccc3)CC2c2ccccc2Br)cc1 (centres undefined), the Potency was inconclusive [cytotoxic, single point].
For O=C(/C=C/c1ccc([N+](=O)[O-])cc1)Nc1ncc([N+](=O)[O-])s1, the Potency was inconclusive [cytotoxic, single point].
For Cc1cc(C)cc(-n2c3ccc(NC(=S)NC4CCCCC4)cc3c(=O)n2C)c1, the Potency was inconclusive [cytotoxic, single point].
For CC1Cc2ccccc2N1C(=O)CCS(=O)(=O)c1ccc2c(c1)NC(=O)CS2 (centres undefined), the “activity, negative = less viability” value was inactive: -4.62%.
In the case of Cc1noc(C)c1-c1ccc(C(=O)Nc2ccc(C(C)C)cc2)c2occc12, the Potency is reported as inconclusive [cytotoxic, single point].
In the case of COc1ccc(/C=C/C(=O)Nc2ccc(C)c(S(=O)(=O)N3CCOCC3)c2)cc1, the Potency is reported as inconclusive [cytotoxic, single point].
For COc1cc(-c2nc3ccc4ccccc4c3c3c2CCC3)cc(OC)c1O, the Potency was inconclusive [cytotoxic, single point].
For N#Cc1nc(-c2ccccc2)oc1NCCCn1ccnc1, the activity, negative = less viability was inconclusive: -32.2% [cytotoxic].
With O=C(c1cc(-c2ccncc2)nc2ccccc12)N1CCN(c2ccccn2)CC1 the Potency was active: 7.94 µM.
In the case of COc1ccc(-c2cn(-c3ccc(C)c(Cl)c3)c(=S)[nH]2)cc1OC, the “activity, negative = less viability” value is reported as inactive: -9.76%.
In the case of CC(=O)C1=C(C)OC(N)=C(C#N)C1c1cc([N+](=O)[O-])ccc1Cl (centres undefined), the Potency is reported as active: 16.4 µM.
With COc1ccc(-c2nc3ccccc3o2)cc1NC(=O)c1ccc(Br)o1 the Potency was inconclusive [cytotoxic, single point].
With CCOC(=O)Nc1ccc2nc(N3CCCCCC3)sc2c1 the Potency was inconclusive [cytotoxic, partial curve].
With CC1CCC(C(O)(C(=O)O)C2CCCCC2)CC1C (centres undefined) the “activity, negative = less viability” value was inactive: 3.81%.
For Cc1ccc(-n2ncc(C(=O)Nc3cc(Cl)cc(Cl)c3)c2C2CCNCC2)cc1C, the Potency was inconclusive [cytotoxic, single point].
For Cc1cc(C)nc(/N=C(\N)Nc2ccc(C(C)C)cc2)n1, the Potency was inconclusive [cytotoxic, single point].
In the case of Cc1cc(/C=N/NC(N)=S)c(C)n1-c1ccc(Br)cc1, the Potency is reported as inconclusive [cytotoxic, partial curve].
In the case of Cc1ccc(S(=O)(=O)C2C(=O)N(C)C3(C)CC2c2ccccc2O3)cc1C (centres undefined), the Potency is reported as inconclusive [rising, partial curve, poor fit].
In the case of CN(C)S(=O)(=O)N1CCN(S(=O)(=O)c2ccc(F)cc2)CC1, the “activity, negative = less viability” value is reported as inactive: -3.06%.
In the case of COc1ccc(NCN2C(=O)C3C4C=CC(C4)C3C2=O)cc1 (centres undefined), the Potency is reported as inconclusive [cytotoxic, partial curve].
With CCCCCCCCC(=O)N/N=C/c1cccc(Br)c1 the “activity, negative = less viability” value was inactive: 2.32%.
With Cc1nc(Sc2ccc(Cl)cc2)c(C#N)c(C)c1[N+](=O)[O-] the Potency was inconclusive [cytotoxic, single point].
With CC1=C(C(=O)N(C(C)C)C(C)C)CC(CC(=O)NCC2CCCCC2)C(=O)N1Cc1ccc(C(C)(C)C)cc1 (centres undefined) the Potency was inconclusive [cytotoxic, single point].
In the case of CSc1ccc(/C=N/NC(=O)c2ccccc2Cl)cc1, the Potency is reported as inconclusive [cytotoxic, partial curve].
For COCCN(Cc1ccccc1)C(=O)c1cc(-c2ccc(OC)c(OC)c2)nc2ccccc12, the “activity, negative = less viability” value was inactive: -12.3%.
In the case of O=C(CCC(=O)N1CCN(c2ccc(Cl)c(Cl)c2)CC1)c1ccccc1, the Potency is reported as inconclusive [cytotoxic, single point].
In the case of CCN(CCCc1ccccc1)CCCc1ccccc1, the Potency is reported as inconclusive [cytotoxic, single point].
With Cc1cc(C)n(CCCNC(=O)c2ccc(C)c(S(=O)(=O)N3CCOCC3)c2)n1 the “activity, negative = less viability” value was inactive: 9.66%.
In the case of COc1ccc(CC(=O)Nc2cc(F)ccc2F)cc1S(=O)(=O)N1CCOCC1, the “activity, negative = less viability” value is reported as inactive: -2.42%.
In the case of COCCNC(=O)C1(C)Cc2c(-c3ccc4c(c3)OCO4)ccnc2O1 (centres undefined), the Potency is reported as inconclusive [cytotoxic, single point].
In the case of Cc1cc(C)c(C(=O)NC2CCCc3c2cnn3-c2ccc(C)c(C)c2)c(=O)[nH]1 (centres undefined), the “activity, negative = less viability” value is reported as inactive: -7.91%.
In the case of CCOC(=O)c1c(C)[n+](-c2ccc(C)cc2)c(CC)c2cc(OC)c(OC)cc12, the Potency is reported as inconclusive [cytotoxic, single point].
For O=C1OCCN/C1=C\C(=O)c1ccccc1, the Potency was inconclusive [rising, single point].
In the case of O=C(NN(c1ccccc1)c1ccccc1)c1ccccc1F, the “activity, negative = less viability” value is reported as inactive: 0.569%.
With C/C=C(/CCC1NCCc2c1[nH]c1ccccc21)[Si](C)(C)C (centres undefined) the Potency was inconclusive [cytotoxic, single point].
With CCOC(=O)c1cc(-c2cccs2)nc2c1c(C)nn2-c1ccccn1 the Potency was inconclusive [cytotoxic, single point].
In the case of O=C1OCC(CO)(CO)N=C1NNc1ccc(Cl)c(Cl)c1, the Potency is reported as inconclusive [cytotoxic, partial curve].
For COC(=O)Nc1ccc(SCC(=O)c2cccc([N+](=O)[O-])c2)cc1, the Potency was inconclusive [cytotoxic, single point].
With CCOC(=O)c1ccc(NC(=O)c2nc[nH]c2C(=O)NCC(=O)OC(C)(C)C)cc1 the Potency was inconclusive [cytotoxic, single point].
With COc1cccc(CNC(=O)c2ccc(N3CCOCC3)c([N+](=O)[O-])c2)c1 the “activity, negative = less viability” value was inactive: 9.66%.
In the case of NC(=O)NN=C1C2CCCC1C(c1ccccc1)NC2c1ccccc1 (centres undefined), the Potency is reported as inconclusive [cytotoxic, partial curve, poor fit].
In the case of c1ccc(-c2n[nH]c(-c3ccccn3)n2)cc1, the Potency is reported as active: 8.2 µM.
